The values that follow come from PubChem BioAssay AID1963576 (National Center for Advancing Translational Sciences (NCATS), 2024).

Each structure is given as a SMILES string. Among all 46,000 compounds or so, about 60 (0.1%) were called active. Roughly 3% stayed inconclusive and do not appear here. The call rests on the fitted dose curve; in most records, active means well fitted inhibition curve with a large enough effect; inconclusive means small, poorly fitted or top-dose-only effect; inactive means no such curve, though single readings can be large or run the other way. The list shows a part of the results.

This assay can be described thus: Primary qHTS assay for Inhibitors of ovarian cancer metastasis using an organotypic tumor microenvironment (TME) model. Further: nearly all actives have a fitted effect of over 65% in size.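 On activity change, negative = inhibition: plate controls were DMSO wells for no effect and tomatine positive control wells for full effect.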 The following applies: SKOV3ip1-GFP adhesion/invasion on 3D omental model, fluorescence; series mostly up to 45.8 µM; activity change, negative = inhibition: at the top concentration. The procedure, abridged: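 Primary human omental fibroblast/mesothelial 3D culture pre-formed 48 h. SKOV3ip1-GFP cells added with compounds (0.36-46 umol/L), incubated 2 h RT/16 h 37 C, fixed; GFP cells quantified at 488/509 nm.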
On the technique in general: qHTS replaces the single test concentration by a dilution series.
For `CCCC(=O)Nc1ccc2nc(SCc3ccc(C)cc3)sc2c1`, the “activity change, negative = inhibition” value is inactive: -2.98%.

As for `CC(C)CCNC(=O)c1ccc2c(c1)nc1n2CCCCC1`, the “activity change, negative = inhibition” value was inactive: -3.26%.

`CC(=O)[C@H]1CC[C@H]2[C@@H]3CCC4=CC(=O)CC[C@]4(C)[C@H]3CC[C@]12C`: the “activity change, negative = inhibition” value was inactive: -1.92%.

`Cc1ccc(CCNC(=O)c2cc3c(=O)n(C)c4ccccc4c3n2C)cc1`: the “activity change, negative = inhibition” value is inactive: -6.72%.

`Cc1cccc(N2CCN(c3nc4ccccc4c4nc(-c5cccnc5)nn34)CC2)c1C`: the “activity change, negative = inhibition” value is inactive: 3.18%.

Regarding `Cn1cc(CNCC2CCN(c3ncc(C(=O)NO)cn3)CC2)c2ccccc21`, the “activity change, negative = inhibition” value was inactive: 14.7%.

Take `Cc1cccc(OCC(=O)Nc2ccccc2C(=O)OCc2cc(=O)n3nc(C4CC4)sc3n2)c1`: the “activity change, negative = inhibition” value was inactive: 4.75%.

As for `Cc1cccc(-n2cnc3cc(C(=O)NC4CCCCCC4)ccc32)c1`, the “activity change, negative = inhibition” value was inactive: -7.75%.

For the compound `CC(C)CCn1c(=O)c2sccc2n2c(CCCC(=O)NC(C)c3ccccc3)nnc12` (centres undefined), the “activity change, negative = inhibition” value was inactive: -0.463%.

As to `CC(=O)c1cccc(NC(=O)CSc2nc3c(=O)n(C)c(=O)n(C)c3n2C)c1`, the “activity change, negative = inhibition” value was inactive: -28.5%.

Turning to `CCOC(=O)c1ccc(NC(=O)c2c(NCc3cc(OC)ccc3OC)sc3c2CCC3)cc1`, the “activity change, negative = inhibition” value was inactive: -0.653%.

Turning to `CCc1cnc2c(c1SCCC(C)C)c(=O)n(C)c(=O)n2C`, the “activity change, negative = inhibition” value was inactive: -0.245%.

Take `CCc1cccc(N2C(=O)N(Cc3c(F)cccc3Cl)c3ccccc3S2(=O)=O)c1`: the “activity change, negative = inhibition” value was inactive: -1.77%.

Regarding `CCn1cc(C(=O)Nc2ccc(C(C)C)cc2)c2cc(OC)c(OC)cc2c1=O`, the call was inactive.

Regarding `Cc1ccc2cc3cc(C(=O)N(C)c4ccccc4C)oc3nc2c1`, the “activity change, negative = inhibition” value was inactive: -12.2%.

In the case of `Cc1cccc(C)c1NC(=O)CN1C(=O)c2ccccc2Sc2ncccc21`, the compound was classed as inactive.

Consider `COc1ccc(C)cc1NC(=O)CN1CCN(S(=O)(=O)c2ccc(Br)cc2)CC1`, for which the “activity change, negative = inhibition” value is inactive: -2.07%.

For the compound `Cc1oc2c(cc(NS(=O)(=O)c3ccc(F)cc3)c3ccccc32)c1C(=O)OCc1ccccc1`, the “activity change, negative = inhibition” value was inactive: -21.1%.

With `COc1ccc(-c2noc(CSc3nnc(-c4ccccc4)n3C)n2)cc1`, the result was inactive.

On to `CCCOC(=O)c1ccc(Nc2c(C(=O)OCC)cnc3c(C)cc(Cl)cc23)cc1`, for which the call was inactive.

On to `CC(=O)N1CCN(c2ccc(OC[C@H]3CO[C@](Cn4ccnc4)(c4ccc(Cl)cc4Cl)O3)cc2)CC1`, for which the “activity change, negative = inhibition” value is inactive: 9.92%.

For `CC(C)OCCCNC(=O)c1nn(C)c2c1CSc1ccccc1-2`, the call was inactive.

Regarding `CC(=O)c1cc(-c2ccccc2)n(CC(=O)NCc2ccccc2C)c1C`, the “activity change, negative = inhibition” value is inactive: -6.08%.

With `COC(=O)c1cc2sc(C)cc2n1CC(=O)Nc1ccc(C)cc1Cl`, the “activity change, negative = inhibition” value was inactive: -5.51%.

For `Clc1ccccc1-c1nnc(-c2ccccc2CNc2ccccc2)o1`, the “activity change, negative = inhibition” value is inactive: 3.03%.

In the case of `FC(F)(F)c1ccc(C=Cc2nc(COc3ccc(CCCCn4ccnn4)cc3)co2)cc1`, the “activity change, negative = inhibition” value was inactive: 5.12%.

Regarding `COc1ccc(NC(=O)C2CCC(CNS(=O)(=O)c3cccs3)CC2)cc1OC` (centres undefined), the “activity change, negative = inhibition” value was inactive: -1.83%.

As to `Cc1ccc(C)c(N2CCN(S(=O)(=O)c3csc(C(N)=O)c3)CC2)c1`, the “activity change, negative = inhibition” value is inactive: -9.15%.

Consider `CCn1nnc2cc(C(=O)Nc3cccc(C)c3C)ccc21`, for which the “activity change, negative = inhibition” value was inactive: -28.4%.

As to `OC(CN1CCC(Cc2ccc(F)cc2)CC1)c1ccc(Cl)cc1` (centres undefined), the “activity change, negative = inhibition” value was inactive: -1.1%.

Take `Cc1cccc(CC(=O)Nc2cccc(-c3nc4cccnc4s3)c2)c1`: the “activity change, negative = inhibition” value was inactive: -2.63%.

Consider `CCN1CCc2c(sc(-n3cccc3)c2C(C)NC(=O)Nc2ccccc2C)C1` (centres undefined), for which the compound was called inactive.

As for `Cc1ccccc1CSCCNC(=O)CN(c1ccccc1)S(=O)(=O)N(C)C`, the “activity change, negative = inhibition” value is inactive: -8.44%.

For the compound `COc1ccccc1CNC(=O)c1cc2ccc3ccc(C)[nH]c3c2n1`, the “activity change, negative = inhibition” value was inactive: 50.3%.

As to `COc1cccc(C(C(=O)NCc2ccccc2)N(C(=O)Cn2nnc3ccccc32)c2cccc(C(C)=O)c2)c1` (centres undefined), the “activity change, negative = inhibition” value was inactive: -2.62%.

On to `Cc1ccc(C)c(CSc2cn(CCNC(=O)c3ccccc3F)c3ccccc23)c1`, for which the result was inactive.

For the compound `Cc1cccc(Oc2ccc(NC(=O)CCC(=O)OCC(=O)c3ccc(Br)cc3)cc2)c1C`, the “activity change, negative = inhibition” value was inactive: 6.82%.

Take `COc1cc(C2c3c(-c4ccccc4O)n[nH]c3C(=O)N2CCO)ccc1OCC(C)C` (centres undefined): the “activity change, negative = inhibition” value was inactive: 15%.

Turning to `COc1ccc(Cc2c(C)nn(-c3nc(C)c(C(=O)Nc4ccc(C)cc4C)s3)c2C)cc1`, the compound was classed as inactive.

In the case of `Cc1cc(C)c(Cn2c3ccccc3c3cnn(CC(=O)NCC(C)c4ccccc4)c(=O)c32)c(C)c1` (centres undefined), the “activity change, negative = inhibition” value is inactive: 1.9%.

Take `O=C(/C=C/c1ccc(Cl)cc1)Nc1nc(-c2cccs2)ns1`: the compound was called inactive.

Consider `Cc1ccc(NC(=O)Cn2nnc3sc4c(c3c2=O)CCCC4)c(C)c1`, for which the “activity change, negative = inhibition” value is inactive: -5.93%.

With `CCCN(CCC)C(=O)CSc1nnc2cc(C)c3ccccc3n12`, the “activity change, negative = inhibition” value was inactive: 7.15%.

With `CCN(CC)CCNC(=O)c1cc2c(=O)oc3ccc(C)cc3c2s1`, the call was inactive.

On to `CCCN1CCN(CCCNC(=O)c2ccc(CS(=O)c3ccc(OC)cc3)o2)CC1` (centres undefined), for which the “activity change, negative = inhibition” value was inactive: -4.99%.

Consider `CCCCc1ccc(NC(=O)CSc2nnc3[nH]c(=O)cc(C)n23)cc1`, for which the “activity change, negative = inhibition” value is inactive: 4.35%.

Take `COc1ccc(-n2c(CCC(=O)O)ccc2-c2ccccc2)c(OC)c1`: the “activity change, negative = inhibition” value was inactive: -0.274%.

As to `CC(=O)N1CCCc2cc(S(=O)(=O)N(Cc3ccccc3)C(C)C)ccc21`, the call was inactive.

`COc1cc(OC)c(NC(=O)CCNS(=O)(=O)c2ccc3c(c2)oc(=O)n3C)cc1Cl`: the “activity change, negative = inhibition” value is inactive: 9.12%.
